Test results reported in FireProtDB (doi:10.1021/bi0524520).

Conditions: Homo sapiens, pH 7.4, Thermal, DSC, Phosphate 7 mM, reversible: Yes

## Insulin wild type (letters omitted)
4H3N 10 mM
  unfolding enthalpy (calorimetric): 57.6 kcal/mol
  unfolding enthalpy (van 't Hoff): 381 kcal/mol
KSCN 10 mM
  unfolding enthalpy (calorimetric): 61.7 kcal/mol
  unfolding enthalpy (van 't Hoff): 370 kcal/mol
KSCN
  unfolding enthalpy (calorimetric): 68.8 kcal/mol
  unfolding enthalpy (van 't Hoff): 481 kcal/mol
NaCl 10 mM
  unfolding enthalpy (calorimetric): 55.2 kcal/mol
  unfolding enthalpy (van 't Hoff): 373 kcal/mol
PABA 10 mM
  unfolding enthalpy (calorimetric): 58.1 kcal/mol
  unfolding enthalpy (van 't Hoff): 380 kcal/mol
